# In article PMC10668032:
# The other results are listed elsewhere or left out. At the low end of the ranking the order means little.
# Biological target: SIX1 homeodomain (reference allele) (UniProt Q15475)
# Experiment: universal protein binding microarray
# Settings: Universal all-10-mer PBM (8x60K, AMADID 030236), 300 nM GST-tagged protein, Alexa Fluor 488 anti-GST; buffer, salt, pH and temperature not stated; high values mean tight binding; most listed sequences are background and not binding sites; double strand, one strand shown
row,Sequence,binding signal [E-score]
1,AAGAGAAG,-0.0906
2,CATCGAGC,0.006
3,AGGCAGCC,-0.0571
4,ACAAGCCT,-0.281
5,CCCCACCC,0.254
6,ACATTTTA,-0.202
7,AATTAAGT,-0.107
8,AGTCTCTA,-0.257
9,GTCGCGGA,0.0563
10,ATGGTAAA,-0.22
11,ACCAATTC,-0.115
12,TAACGCTA,0.0239
13,ACCAACGG,-0.189
14,CCTAGAGG,0.0822
15,AACATCAC,-0.117
16,GAAATATC,0.262
17,GAGAATTA,-0.261
18,AGTTGCCC,-0.197
19,CCAATGGA,0.027
20,GCATTCGA,0.0686
21,ATTTCGGG,-0.0974
22,CAGACATC,-0.0558
23,ACAAAATC,-0.183
24,CAGTTTCG,-0.0174
25,GACAGTTA,-0.0705

row,Sequence,binding signal [E-score]
1,CAACAGCA,-0.107
2,ACTACGAG,-0.00238
3,TACATCTA,0.141
4,TAAGCGAA,-0.198
5,ATTGCTAG,-0.165
6,ATCCTTTC,0.212
7,CGTATACC,0.367
8,GGGAACAC,-0.0861
9,CATGTCCG,-0.204
10,GTTCCCCA,-0.168
11,CCGTGGTA,0.113
12,GAATGTCC,-0.115
13,CTACATGC,-0.00164
14,ACTGTTCC,-0.331
15,GTCCCCCA,-0.237
16,CGAACAGA,-0.0625
17,AACGTACT,-0.202
18,AAGTTCTG,-0.297
19,CTAGCACC,-0.0732
20,ATCCTAAC,0.163
21,ATTCGGCA,0.0244
22,AGACAGAA,-0.095
23,CTACCAAC,-0.148
24,CACTACTC,0.0699
25,CGCATACG,-0.0416

row,Sequence,binding signal [E-score]
1,GCCAGATA,0.213
2,TAAAGATA,0.167
3,ACGGTTGA,-0.25
4,CCACGCAA,0.0948
5,GCTCAAAC,0.0222
6,CCGTCGAG,0.121
7,TAACCCTA,-0.00804
8,AACTCCTC,-0.0664
9,ATCCATCC,0.343
10,AGCTCACG,-0.102
11,CTAACAAC,-0.124
12,GACGACGC,-0.258
13,CACCTGTA,0.0186
14,CTGATAAC,0.051
15,ACGGGTGA,0.12
16,CAATAAGA,0.073
17,CAAGCTTC,-0.211
18,CATATTTC,-0.0131
19,CTCTATAC,0.112
20,ATGGCCTC,0.0204
21,ACGTCGAA,-0.278
22,AACTTTCC,-0.205
23,GAACGGAC,-0.161
24,AACATTAC,-0.233
25,AAATTTGA,0.0735

row,Sequence,binding signal [E-score]
1,AGTGACAC,0.354
2,AAATATTA,-0.0387
3,CCTACAGG,-0.125
4,GATCCGAC,0.389
5,ACCTCACA,-0.0507
6,GAGGCGAC,-0.19
7,TCGCCTCA,-0.105
8,ACTAACTA,-0.0141
9,AGTATTTC,0.107
10,CTCCTAAC,-0.00143
11,AAGTTGGG,-0.14
12,GGGGTTAC,-0.0675
13,CGTGGTGA,-0.0689
14,AACTGCTA,-0.11
15,AGGGTACT,-0.0162
16,AAAGCTCT,-0.166
17,ATAAGACA,0.0395
18,AATGGTCC,-0.194
19,CGAATGGA,0.0964
20,ATGTTGCC,0.0146
21,CCATGAGG,0.0198
22,CGCAGCCA,-0.0909
23,GACGGGAC,-0.293
24,AAGGGCGT,-0.119
25,AGAGATGG,0.134

row,Sequence,binding signal [E-score]
1,ACTACGGA,-0.0534
2,GACGCTCC,-0.186
3,GCCTGGCA,-0.383
4,AACACTGT,-0.0656
5,ACTGGTAA,-0.0644
6,CCTATGAG,-0.0357
7,ACCGCTGG,0.103
8,ATATTAAC,0.156
9,CTGCGCCA,-0.204
10,CTTCCGCA,0.0362
11,CAACGAGC,-0.168
12,AATCCACG,-0.0709
13,AGCGCGAA,-0.189
14,GTACAATA,0.0743
15,CATAGAGC,-0.151
16,GCAGCTAA,-0.189
17,ATCGACGC,-0.0319
18,AAAGGCGT,-0.131
19,GCTATTAC,0.0732
20,CCATTATC,0.127
21,CCATGCGG,-0.0832
22,ACGTCTGG,-0.218
23,ATACCAAG,0.285
24,TCGAGGAA,-0.21
25,ACGCCCCC,-0.101

row,Sequence,binding signal [E-score]
1,CGTGGCAA,-0.204
2,ATTCACGA,0.0136
3,GTCTTCTA,-0.0681
4,ACACAATG,0.00245
5,AGGTGATG,-0.0263
6,GATGTAAC,-0.0713
7,AATACGGC,0.252
8,ACTGACCC,0.0491
9,ACTACTAT,0.122
10,CTGTTCTA,-0.0952
11,AGTTTGGA,0.0293
12,GGGTCCTA,-0.00688
13,AGGCAGGC,-0.166
14,ACATGCTA,-0.158
15,ATAGCGCG,0.0138
16,ACATATGA,0.166
17,ACTCTTGA,0.00743
18,CGGAAGAA,-0.218
19,ACCATCGC,-0.174
20,AGGTACCG,0.00903
21,CCACCGCG,0.126
22,AGAGGTAC,-0.0714
23,GCAAAGCA,-0.146
24,GCTGTGAC,-0.0895
25,ACCGAGCG,-0.0382

row,Sequence,binding signal [E-score]
1,GAGCGTTA,-0.143
2,ATTGCCTG,-0.0952
3,ATGATTGC,-0.0515
4,GTGCCTCA,-0.382
5,GTAAGACA,-0.149
6,ATCTTCTA,0.227
7,ACCGGCGA,0.0881
8,CTGAGTAA,-0.18
9,GTGGGATA,0.348
10,CCATTGGG,-0.00459
11,ATTCACCC,-0.121
12,CACAATAC,0.31
13,GTTGCAAA,-0.124
14,ACGAGGAA,0.0787
15,CGTCGACA,-0.146
16,AGACCGTA,-0.0102
17,TCGTACCA,0.0409
18,AACACTCT,-0.109
19,CCTCTTCC,-0.215
20,CACTAGCA,-0.106
21,GCAGTTCA,-0.134
22,CGATCCGC,0.418
